Measurements published in the supplement of paper PMC4967469.

Experiments:
Test in all cases: Viability of human cancer cell lines after 72 h of drug (GDSC screen)
[1] = compound: C/C=C(/C)C(=O)O[C@H]1C(C)=C2[C@H]([C@@H]1OC(=O)CCCCCCC)[C@@](C)(OC(C)=O)C[C@H](OC(=O)CCC)[C@@]1(O)[C@H]2OC(=O)[C@@]1(C)O [Thapsigargin]; settings: top dose 0.512 µM; top dose inferred
Description: (§1)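 Human cancer cell lines in 384-well plates, medium with 10% serum, drug for 72 h over a 256-fold dose range (nine 2-fold or five 4-fold steps up to the top dose). Adherent lines were fixed and stained with the nucleic acid dye Syto60, suspension lines read with resazurin; signal relative to control wells, capped at 0 and 100%. One two-parameter sigmoid per drug and line, fitted in a mixed model over all curves with the slope shared within a line.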

[2] = compound: C=CC(=O)Nc1cc(-n2c(=O)ccc3cnc4ccc(-c5cn[nH]c5)cc4c32)ccc1C [QL-X-138]; settings: top dose 10.24 µM; top dose inferred
Description: as §1

[3] = compound: CCn1c(-c2nonc2N)nc2cnc(Oc3cccc(NC(=O)c4ccc(OCCN5CCOCC5)cc4)c3)cc21 [GSK269962A]; settings: top dose 5 µM; screen: GDSC drug entry 1192; top dose inferred
Description: as §1

[4] = compound: COc1cc(N2CCC(O)CC2)ccc1Nc1cc(Nc2ccccc2S(=O)(=O)C(C)C)c2cc[nH]c2n1 [MPS-1-IN-1]; settings: top dose 20 µM; top dose inferred
Description: as §1

[5] = compound: COc1cc(O)c2c(c1)/C=C/C[C@H](O)[C@H](O)C(=O)/C=C\C[C@H](C)OC2=O [(5Z)-7-Oxozeaenol]; settings: top dose 10 µM; top dose inferred
Description: as §1

[6] = compound: COc1cc2ncnc(-n3nc(-c4ccccn4)nc3N)c2cc1OC [CP466722]; settings: top dose 16 µM; top dose inferred
Description: as §1

[7] = compound: COc1nc(C)cnc1NS(=O)(=O)c1cccnc1-c1ccc(-c2nnco2)cc1 [Zibotentan]; settings: top dose 20 µM; top dose inferred
Description: as §1

[8] = compound: C[C@]1(c2nc3c(C(N)=O)cccc3[nH]2)CCCN1 [ABT-888]; settings: top dose 5 µM; top dose inferred
Description: as §1

[9] = compound: Cc1ccc(F)c(NC(=O)Nc2ccc(-c3cccc4[nH]nc(N)c34)cc2)c1 [ABT-869]; settings: top dose 1.024 µM; top dose inferred
Description: as §1

[10] = compound: Cc1cnc(-c2cnc(NCCNc3ccc(C#N)cn3)nc2-c2ccc(Cl)cc2Cl)[nH]1 [CHIR-99021]
Description: as §1

[11] = compound: O=c1cc(-c2cccc3c2Sc2ccccc2S3)oc(N2CCOCC2)c1 [KU-55933]; settings: top dose 10 µM
Description: as §1

[12] = top dose 2.56 µM, screen: GDSC drug entry 154
[13] = top dose 10 µM, screen: GDSC drug entry 1241, top dose inferred

| Cell Line | AUC [1] | IC50 [1] [µM] | AUC [2] | IC50 [2] [µM] | AUC [3] | IC50 [3] [µM] | AUC [4] | IC50 [4] [µM] | AUC [5] | IC50 [5] [µM] | AUC [6] | IC50 [6] [µM] | AUC [7] | IC50 [7] [µM] | AUC [8] | IC50 [8] [µM] | AUC [9] | IC50 [9] [µM] | AUC [10, 12] | IC50 [10, 12] [µM] | AUC [10, 13] | IC50 [10, 13] [µM] | AUC [11] | IC50 [11] [µM] |
| --- | --- | --- | --- | --- | --- | --- | --- | --- | --- | --- | --- | --- | --- | --- | --- | --- | --- | --- | --- | --- | --- | --- | --- | --- |
| 22RV1 (prostate, adherent) | 0.235 | 0.00443 | 0.537 | 0.829 | 0.908 | > 5 | 0.713 | 5.84 | 0.863 | > 10 | 0.789 | 9.02 | 0.982 | > 20 | 0.982 | > 5 | 0.968 | > 1.02 | 0.979 | > 2.56 | 0.918 | > 10 | 0.978 | > 10 |
| 5637 (bladder, adherent) | 0.285 | 0.00845 | 0.746 | 2.98 | 0.84 | 2.99 | 0.873 | 16.1 | 0.821 | 5.09 | 0.783 | 6.06 | 0.989 | > 20 | 0.989 | > 5 | 0.979 | > 1.02 | 0.989 | > 2.56 | 0.965 | > 10 | 0.954 | > 10 |
| 23132-87 (stomach, adherent) | 0.475 | 0.0272 | 0.732 | 3.01 | 0.91 | > 5 | 0.867 | 19.2 | 0.76 | 3.64 | 0.889 | > 16 | 0.985 | > 20 | 0.986 | > 5 | 0.986 | > 1.02 | 0.978 | > 2.56 | 0.945 | > 10 | 0.946 | > 10 |
| A375 (melanoma, adherent) | 0.156 | 0.00375 | 0.969 | > 10.2 | 0.654 | 0.764 | 0.867 | 12.9 | 0.042 | < 0.0391 | 0.847 | 8.79 | 0.991 | > 20 | 0.966 | > 5 | 0.991 | > 1.02 | – | – | 0.837 | 5.09 | 0.927 | > 10 |
| A427 (non-small cell lung carcinoma, adherent) | 0.248 | 0.00597 | 0.921 | > 10.2 | 0.866 | 4.55 | – | – | 0.738 | 3.02 | 0.825 | 9.74 | 0.986 | > 20 | 0.969 | > 5 | 0.981 | > 1.02 | 0.986 | > 2.56 | 0.908 | > 10 | 0.975 | > 10 |
| A431 (skin, adherent) | 0.226 | 0.0053 | 0.738 | 2.96 | 0.987 | > 5 | 0.84 | 13 | 0.7 | 2.22 | 0.754 | 5.19 | 0.987 | > 20 | 0.987 | > 5 | 0.982 | > 1.02 | 0.988 | > 2.56 | 0.984 | > 10 | 0.971 | > 10 |
| AU565 (breast, adherent) | 0.309 | 0.00872 | 0.725 | 3.03 | 0.923 | > 5 | 0.976 | > 20 | – | – | 0.835 | 12.2 | 0.978 | > 20 | 0.984 | > 5 | 0.976 | > 1.02 | 0.981 | > 2.56 | – | – | 0.933 | > 10 |
| AsPC-1 (pancreas, adherent) | 0.779 | 0.391 | 0.869 | > 10.2 | 0.893 | > 5 | 0.972 | > 20 | 0.607 | 1.51 | 0.919 | > 16 | 0.961 | > 20 | 0.968 | > 5 | 0.97 | > 1.02 | 0.964 | > 2.56 | 0.926 | > 10 | 0.938 | > 10 |
| BFTC-905 (bladder, adherent) | 0.103 | 0.00214 | 0.685 | 1.94 | 0.987 | > 5 | 0.877 | 15.3 | 0.527 | 0.73 | 0.869 | 11.4 | 0.99 | > 20 | 0.99 | > 5 | 0.99 | > 1.02 | 0.98 | > 2.56 | 0.969 | > 10 | 0.93 | > 10 |
| BICR22 (head and neck, adherent) | 0.455 | 0.0236 | 0.906 | > 10.2 | 0.927 | > 5 | 0.964 | > 20 | 0.6 | 1.23 | 0.977 | > 16 | 0.982 | > 20 | 0.953 | > 5 | 0.98 | > 1.02 | 0.979 | > 2.56 | 0.96 | > 10 | 0.956 | > 10 |
| COR-L23 (large cell lung carcinoma, adherent) | 0.284 | 0.008 | 0.615 | 1.32 | 0.94 | > 5 | 0.876 | 18.9 | 0.802 | 4.75 | 0.757 | 5.37 | 0.987 | > 20 | 0.988 | > 5 | 0.987 | > 1.02 | – | – | – | – | 0.987 | > 10 |

A lower IC50 marks a more sensitive line; fits outside the tested doses are given as limits. For AUC the same curve is integrated over the 256-fold range of doses and scaled to a fraction: 1 means no effect, lower means more sensitive. For part of these data: Where the top dose is marked as inferred, it was derived from the fitted curves, not read from the paper. For part of these data: Where an entry number is given, a second screen of the drug exists; the two often differ.
